# Source: PubChem BioAssay AID686978 (National Center for Advancing Translational Sciences (NCATS), 2013)
# Hit rate of the full screen: of about 420,000 compounds, about 64,000 (15%) were called active. Inconclusive means that the source gave no clear call. Such entries were picked first, then a sample of the others. Calls follow the shape of the dose curve; as a rule, active = well fitted inhibition curve with a large enough effect; inconclusive = small, poorly fitted or top-dose-only effect; inactive = flat fitted curve, though single readings scatter. No potency is given beside an inconclusive call; the fits are too rough.
# Experiment: qHTS for Inhibitors of human tyrosyl-DNA phosphodiesterase 1 (TDP1): qHTS in cells in absence of CPT; also: nearly all actives have a fitted effect of over 55% in size
# Details: DT40 Tdp1-/- hTDP1 cells, no CPT, ATP luminescence, 48 h; activity change, negative = growth inhibition: at 46.2 µM (top of the series)
# Outline: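 Luminescent ATP content (CellTiter-Glo) served as the growth readout. Knockout chicken DT40 cells expressing human TDP1 were exposed to compounds without camptothecin for a minimum 48 hr at 37 °C.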
# % is scaled to controls: 0 for no effect and ±100 for the full control effect; potency is read from the fitted curve at half-maximal effect; tags tell the direction and shape of the fitted curve.
Structure (SMILES),Potency,"activity change, negative = growth inhibition"
Cc1cccc(NC(=O)c2sc(NC(=O)c3ccco3)c(C#N)c2C)c1C,"inconclusive [inhibitor, partial curve]",–
CCCC[C@@H]1Cc2[nH][nH]c(=O)c2[C@@H](c2ccc(Cl)cc2)O1,inactive,–
CNS(=O)(=O)c1cn(CC(=O)N2CCN(c3cccc(Cl)c3)CC2)cc1S(=O)(=O)NC,active: 25.9 µM,–
Cc1ccc(C(=O)c2ccccc2C(=O)OCC(=O)Nc2ccc(SC(F)F)cc2)cc1,active: 18.4 µM,–
COc1ccc(NC(=O)C2CC(=O)N=C(N)S2)cc1 (centres undefined),inactive,–
O=C(c1cnn(-c2nccc(-c3ccco3)n2)c1C1CC1)N1CCCCC1c1cccnc1 (centres undefined),inactive,–
O=S(=O)(c1ccccc1)c1nnn2c1nc(NC1CCN(Cc3ccccc3)CC1)c1ccccc12,active: 8.2 µM,–
Cc1ccsc1C(=O)NNC(=O)COc1ccccc1Cl,inactive,–
CN(CC(=O)Nc1ccc(F)cc1)C(=O)c1ccc(-c2ccc(Cl)cc2)o1,"inconclusive [inhibitor, single point]",–
CC(C)Cc1nn2c(=O)cc(CSCC(=O)Nc3ccccc3F)nc2s1,inactive,–
CCOC(=O)c1c(NC(=O)c2ccco2)n(C2CCCCC2)c2nc3ccccc3nc12,active: 8.2 µM,–
CCC(C)[C@H](NC(=O)NCc1ccc(S(N)(=O)=O)cc1)C(=O)O (some centres undefined),inactive,–
Cc1ccccc1C=Nc1ccccc1C(N)=O,active: 4.61 µM,–
NNC(=O)[C@H](Cc1ccccc1)NC(=O)NCCc1ccccc1,inactive,–
CC(=O)c1c(C)[nH]c(C(=O)CSc2nnc(-c3ccccc3)n2Cc2ccc3c(c2)OCO3)c1C,"inconclusive [inhibitor, single point]",–
O=C(CCCCn1c(=O)c2ccccc2n(Cc2ccccc2F)c1=O)NCc1ccccc1Cl,active: 5.17 µM,–
COC(=O)C1=C(C)N(c2ccc(C)cc2)/C(=C/c2ccc(O)cc2)C1=O,active: 20.6 µM,–
CCN(CC)C(=O)C1=CC(c2ccc3c(c2)OCO3)=NS(=O)(=O)N1C,inactive,–
CC(=O)OCCN(CCCn1c(-c2ccncc2)nc2ccccc21)c1nc(CN2CCCCC2)cs1,inactive,–
COc1ccc(/C=N/NS(=O)(=O)c2ccccc2)cc1OS(=O)(=O)c1ccc(C)cc1,active: 18.4 µM,–
CSc1ncnc2c1cnn2-c1ccc(C)cc1C,"inconclusive [inhibitor, single point]",–
O=C(OCC(=O)N1CCCC1)c1cc(Cl)ccc1Cl,inactive,–
N=c1c2c(-c3ccccc3)c(-c3ccccc3)oc2ncn1CCN1CCOCC1,active: 16.4 µM,–
Cc1nnc2ccc(-c3ccc(NS(=O)(=O)c4ccccc4[N+](=O)[O-])cc3)nn12,"inconclusive [inhibitor, single point]",–
Fc1ccc(-c2cc(-c3ccccc3)nc(-n3cccn3)n2)cc1,"inconclusive [inhibitor, single point]",–

Structure (SMILES),Potency,"activity change, negative = growth inhibition"
COCCNC(=O)NC(=O)COC(=O)c1ccc2[nH]c3c(c2c1)CCCC3,"inconclusive [inhibitor, full curve, poor fit]",–
CCOc1ccc(NC(=S)NC(=O)/C=C/c2ccc(OC)c(OC)c2)c([N+](=O)[O-])c1,"inconclusive [inhibitor, single point]",–
COc1ccc(N2CCN(C(=O)CSc3nnc(NC(=O)C4CCC4)s3)CC2)cc1,"inconclusive [inhibitor, single point]",–
Cc1cc(C)c2cc(C(=O)N(C)C3CCN(C)CC3)[nH]c2c1,"inconclusive [inhibitor, partial curve]",–
CC(=O)c1ccc(NC(=O)N2CCc3ccccc3C2)cc1,"inconclusive [inhibitor, single point]",–
Cc1cccc(C)c1N=C1C(=O)Nc2ccccc21,"inconclusive [inhibitor, partial curve]",–
Cc1cc(/C=C2/NC(=O)N(Cc3ccccc3F)C2=O)c(C)n1C(C)C,"inconclusive [inhibitor, single point]",–
CCc1nc2c(OCC(=O)c3ccc(F)cc3)cccn2c1N(C)C(=O)c1cccs1,"inconclusive [inhibitor, single point]",–
CC1CCN(C(=O)COC(=O)CSc2ccc(C(N)=O)cc2[N+](=O)[O-])CC1,inactive,–
CC(=O)N1N=C(c2ccc(C(C)(C)C)cc2)OC1(C)C,active: 10.3 µM,–
COCCn1c(C)cc(C2=NNC(=Nc3ccccc3F)SC2)c1C,"inconclusive [inhibitor, partial curve]",–
COc1ccc(-c2c(-c3ccc(OC)c(F)c3)c3ccccc3n2C)cc1,inactive,–
COc1ccc(NC(=S)NCc2ccc3c(c2)OCO3)cc1,"inconclusive [inhibitor, single point]",–
O=C(Cc1ccc(Cl)cc1Cl)OCC(=O)N1CCN(C(=O)c2ccco2)CC1,inactive,–
Nc1nc(SC2c3cccc4cccc(c34)C2NS(=O)(=O)c2ccccc2)n[nH]1 (centres undefined),"inconclusive [inhibitor, single point]",–
CCC(C)n1c(SCC(=O)NC2CC2)nc2ccccc2c1=O (centres undefined),"inconclusive [inhibitor, single point]",–
O=C(CCNC(=O)N1CC(=O)Nc2ccccc21)NCc1ccccc1Cl,active: 13 µM,–
COCCCN(C(=O)c1cc2c(s1)CCCCC2)c1c(N)n(Cc2ccccc2)c(=O)[nH]c1=O,–,inconclusive: -34.6% [inhibitor]
Cc1c(N=Cc2ccc(-c3ccc(Cl)cc3)o2)c(=O)n(-c2ccccc2)n1C,inactive,–
FC(F)(F)c1ccc2c(c1)C1C=CCC1C(c1ccncc1)N2 (centres undefined),"inconclusive [inhibitor, single point]",–
CCN(CC)CCOCCOc1ccc(Cl)c2ccccc12,active: 16.4 µM,–
CCOC(=O)c1c(C)c(C(=O)Nc2cc(F)ccc2F)c(C)n1C,active: 10.3 µM,–
CC(C)CCNC(=O)c1cc(Sc2ccc(F)cc2F)nc2ccccc12,"inconclusive [inhibitor, single point]",–
Cc1ccc(N(C(=O)c2csnn2)C(C(=O)NC2CCCC2)c2ccncc2)c(C)c1 (centres undefined),"inconclusive [inhibitor, full curve]",–
COc1ccccc1N1CCN(C(=O)c2ccc([N+](=O)[O-])s2)CC1,"inconclusive [inhibitor, partial curve]",–

Structure (SMILES),Potency,"activity change, negative = growth inhibition"
Cc1ccccc1NC(=S)NCc1ccc(Cl)cc1,active: 14.6 µM,–
O=C(Cc1cccc(C(F)(F)F)c1)NCC(=O)Nc1cc(Cl)ccc1Cl,"inconclusive [inhibitor, single point]",–
COc1cc(/C=C(\CC(=O)O)c2nc3ccccc3s2)ccc1OCC(=O)Nc1ccccc1F,"inconclusive [inhibitor, single point]",–
O=C(CCN1C(=O)/C(=C/c2ccccc2F)SC1=S)NCCCN1CCOCC1,"inconclusive [inhibitor, single point]",–
CCNc1ccccc(C(=O)/C=C/c2ccc3c(c2)OCO3)c1=O,active: 16.4 µM,–
CCOC(=O)c1cnc2c(C)cc(C)cc2c1Nc1ccc(OCc2ccccc2)cc1,inactive,–
CCCCn1cc(S(=O)(=O)c2ccccc2)c(=O)c2cc(F)c(N3CCC(C)CC3)cc21,"inconclusive [inhibitor, single point]",–
CC(C)CN(C(=O)COC(=O)c1ccc2c(c1)OCCO2)c1c(N)n(Cc2ccccc2)c(=O)[nH]c1=O,inactive,–
COc1cc(OC)cc(C(=O)NCC2CCCN(Cc3ccc(SC)cc3)C2)c1 (centres undefined),active: 16.4 µM,–
CCOC(=O)C1CCCN(c2c(C(=O)c3ccccc3)cnc3ccccc23)C1 (centres undefined),inactive,–
COc1cc2c(cc1OC)[C@@H](NC(=O)C(C)C)[C@H](O)C2,inactive,–
Cn1cccc1C(=O)N1CCC[C@@]2(CCN(Cc3cc(C(F)(F)F)cc(C(F)(F)F)c3)C2)C1,"inconclusive [inhibitor, single point]",–
COc1ccccc1CNC(=O)COC(=O)CSc1ccc(C)c(C)c1,inactive,–
Cc1ccc2c(c1)c1ncnc(N3CCc4ccccc4C3)c1n2C,active: 20.6 µM,–
Cc1ccccc1C(=O)NC(C(=O)Nc1nc2c(s1)CCCC2)C(C)C (centres undefined),active: 25.9 µM,–
COc1ccccc1N1CCN(C[C@@H]2CN3C(=O)N(C)c4ccccc4C3=N2)CC1,"inconclusive [inhibitor, partial curve, poor fit]",–
Cc1ccccc1OCCNc1ccc(C(F)(F)F)cc1[N+](=O)[O-],–,inconclusive: -30.2% [inhibitor]
CCN(C1CCS(=O)(=O)C1)S(=O)(=O)c1cc(C)ccc1C (centres undefined),inactive,–
COc1ccc(NC(=O)c2cc(Br)ccc2Cl)c([N+](=O)[O-])c1,inactive,–
O=c1c2ccccc2nc(SCc2nnc(-c3ccccc3Br)o2)n1Cc1ccco1,"inconclusive [inhibitor, single point]",–
COc1cccc(CC(=O)Nc2ccc3c(c2)OC2(CCCC2)O3)c1,"inconclusive [inhibitor, single point]",–
O=C1c2cccc3c([N+](=O)[O-])ccc(c23)C(=O)N1c1nccs1,active: 3.26 µM,–
CC(=O)n1cc([C@H]2C=C(C(=O)N3CCN(Cc4ccccc4)CC3)O[C@@H](OCc3ccc(CO)cc3)C2)c2ccccc21,active: 7.31 µM,–
Cc1c(C(=O)NCc2cccs2)oc2ccc(S(=O)(=O)N3CCOCC3)cc12,"inconclusive [inhibitor, single point]",–
